# Screen size: about 350,000 compounds; about 31,000 (8.9%) were called active. The inconclusive results got no clear call from the source; some entries with a clear call stand among them for comparison. Calls come from the whole dose curve; as a rule, active = well fitted inhibition curve with a large enough effect; inconclusive = small, poorly fitted or top-dose-only effect; inactive = no such curve, though single readings can be large or run the other way. Potencies beside an inconclusive call are fits to weak or partial responses and may not hold up.
# Target: Histone-lysine N-methyltransferase EHMT2 (Homo sapiens) (UniProt Q96KQ7)
# Test: qHTS Assay for Inhibitors of Histone Lysine Methyltransferase G9a; note: nearly all actives have a fitted effect of over 75% in size
# Conditions: G9a H3K9 monomethylation, AlphaScreen, 2 h; activity, negative = inhibition: at 59 µM (top of the series) unless noted
# How it was run: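 G9a (20 nM) preincubated 15 min RT with compounds, then 500 nM biotinylated H3K9 peptide and 20 uM SAM added; 2 h RT reaction. Monomethyl-H3K9 product detected by AlphaScreen with anti-H3K9me1 antibody, streptavidin donor and anti-rabbit IgG acceptor beads.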
# % is set by controls: 0 for no effect and ±100 for the full control effect; potency is the fitted concentration of half-maximal effect; tags give direction and shape of the fitted curve.
# Chain of UniProt Q96KQ7 (Q96KQ7 whole entry, looked up): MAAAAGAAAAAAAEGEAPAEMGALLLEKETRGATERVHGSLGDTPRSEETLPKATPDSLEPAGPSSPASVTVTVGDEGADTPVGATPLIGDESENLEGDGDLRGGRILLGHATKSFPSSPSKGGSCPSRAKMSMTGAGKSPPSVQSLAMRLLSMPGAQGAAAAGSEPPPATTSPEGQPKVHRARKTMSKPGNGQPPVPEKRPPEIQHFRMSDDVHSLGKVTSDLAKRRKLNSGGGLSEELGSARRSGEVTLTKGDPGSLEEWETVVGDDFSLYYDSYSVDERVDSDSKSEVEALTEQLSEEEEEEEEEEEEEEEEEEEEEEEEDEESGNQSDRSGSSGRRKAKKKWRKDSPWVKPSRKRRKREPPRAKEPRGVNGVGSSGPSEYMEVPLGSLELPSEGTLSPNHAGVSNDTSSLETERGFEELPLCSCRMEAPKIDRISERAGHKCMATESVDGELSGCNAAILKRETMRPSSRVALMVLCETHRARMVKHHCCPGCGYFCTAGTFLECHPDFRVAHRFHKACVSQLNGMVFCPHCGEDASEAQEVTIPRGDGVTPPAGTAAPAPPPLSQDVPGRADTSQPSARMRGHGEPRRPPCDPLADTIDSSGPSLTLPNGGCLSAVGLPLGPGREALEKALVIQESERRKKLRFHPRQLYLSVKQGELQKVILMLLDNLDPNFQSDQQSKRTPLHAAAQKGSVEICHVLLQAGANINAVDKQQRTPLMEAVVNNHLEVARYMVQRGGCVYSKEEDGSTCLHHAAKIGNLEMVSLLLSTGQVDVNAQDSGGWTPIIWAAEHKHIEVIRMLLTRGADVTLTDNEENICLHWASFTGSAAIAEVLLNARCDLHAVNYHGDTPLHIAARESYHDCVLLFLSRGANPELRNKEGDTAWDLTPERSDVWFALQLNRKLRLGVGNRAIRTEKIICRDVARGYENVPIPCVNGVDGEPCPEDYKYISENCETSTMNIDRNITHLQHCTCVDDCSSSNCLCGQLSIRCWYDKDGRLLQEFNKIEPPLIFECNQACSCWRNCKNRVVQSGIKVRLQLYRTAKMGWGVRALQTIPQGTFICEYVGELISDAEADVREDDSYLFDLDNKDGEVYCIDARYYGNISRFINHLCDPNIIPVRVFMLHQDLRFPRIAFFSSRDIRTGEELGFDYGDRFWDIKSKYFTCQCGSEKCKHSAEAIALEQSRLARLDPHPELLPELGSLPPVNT
SMILES,Potency,"activity, negative = inhibition"
COc1ccc(N2CCN(c3oc(-c4ccccc4OC)nc3C#N)CC2)cc1,active: 2.51 µM,
Oc1ccc(/C=N/Nc2cc(N3CCOCC3)nc(N3CCOCC3)n2)cc1O,"inconclusive: 8.91 µM [inhibitor, partial curve, poor fit]",
COc1ccc(NC(=O)c2ccco2)cc1NC(=O)COc1ccccc1Cl,,inactive: 26%
CC1CC(=O)C=C(O)C1C(=O)OC(C)(C)C (stereo unspecified),,inactive: -5.5% [at 12.7 µM]
Clc1ccccc1OCc1nc(-c2ccc(Br)o2)no1,"inconclusive: 89.1 µM [inhibitor, single point]",
O=C(O)c1c(C(=O)O)c(-c2ccc(Br)cc2)n2c1CSC2,,inactive: -18.8% [at 102 µM]
Cc1ccc(C(=O)NCC2CCCO2)o1 (stereo unspecified),"inconclusive: 7.08 µM [inhibitor, partial curve, poor fit]",
CCOC(=O)C1CCN(c2cc3c(cc2NC(=O)c2ccccc2OCC)n(C)c(=O)n3C)CC1,"inconclusive: 15.8 µM [inhibitor, single point]",
NC(=O)c1cccc(-c2cc(Nc3ccc(OC(F)(F)F)cc3)ncn2)c1,,inconclusive: -51% [inhibitor]
CC(C(=O)O)n1c(-c2ccn[nH]2)n[nH]c1=S (stereo unspecified),"inconclusive: 50.1 µM [inhibitor, partial curve]",
COc1cccc(CNC(=O)CCn2c(=O)c3cccn3c3ccc(F)cc32)c1OC,,inactive: 10.4%
COc1ccc(-n2nc(C(=O)N(C)c3cccc(C(F)(F)F)c3)c3c4ccccc4n(C)c3c2=O)cc1,,inactive: 25.2%
COC(=O)c1[nH]c2cc(C)ccc2c1NC(=O)CN1CCN(C(=O)c2ccco2)CC1,,inconclusive: -66.5% [inhibitor]
CCCCOc1ccc(CNC(=O)CN2CCSc3ccccc32)cc1,"inconclusive: 28.2 µM [inhibitor, single point]",
Cn1cccc1CC(=O)N/N=C/c1cccc([N+](=O)[O-])c1,"inconclusive: 50.1 µM [inhibitor, partial curve, poor fit]",
Cc1nnc(NC(=O)CSc2ccc([N+](=O)[O-])cn2)s1,"inconclusive: 35.5 µM [inhibitor, partial curve]",
COc1ccc(Nc2nc(NC(C)(C)C)nc(N3CCOCC3)n2)c(OC)c1,active: 39.8 µM,
c1cncc(-c2noc(-c3ccco3)n2)c1,,inactive: 27.2%
Cc1ccc(C(=O)N/C(=C/c2ccccc2)C(=O)NCc2ccncc2)cc1,,inactive: 33%
CC1=C(C(=O)OCc2ccccc2)C(c2ccc(Cl)cc2Cl)NC(=O)N1CCCCCC(=O)O (stereo unspecified),"inconclusive: 89.1 µM [inhibitor, single point]",
Cc1cc(/C=C/C(=O)O)c(C)n1-c1ccc(Cl)cc1,"inconclusive: 39.8 µM [inhibitor, full curve, poor fit]",
Cc1nc2ccccn2c1-c1csc(Nc2ccc(C(=O)O)cc2)n1,"inconclusive: 79.4 µM [inhibitor, single point]",
CN1CCN(c2ccc(NC(=O)CSc3ccccc3)cc2F)CC1,"inconclusive: 50.1 µM [inhibitor, partial curve]",

SMILES,Potency,"activity, negative = inhibition"
COc1ccc(C(C)=O)cc1COc1ccc(F)cc1,,inactive: 42.2% [at 102 µM]
Cc1ccccc1-c1n[nH]c(=S)n1/N=C/C=C/c1ccco1,active: 2.24 µM,
COc1ccc(C(=O)/C=C/N(C)C)cc1,,inconclusive: -76.7% [inhibitor] [at 12.7 µM]
Oc1c(Br)cc(/C=N/n2c(-c3ccccc3)n[nH]c2=S)c(Br)c1O,active: 1.78 µM,
CC1=NN(C(C)C)C(=O)C1,"inconclusive: 89.1 µM [inhibitor, partial curve, poor fit]",
CCN(Cc1cc(=O)n2cc(Cl)c(C)c(Cl)c2n1)Cc1nc2ccccc2c(=O)[nH]1,active: 50.1 µM,
CN(Cc1ccccc1)S(=O)(=O)c1ccc(NS(=O)(=O)Cc2ccccc2)cc1,"inconclusive: 89.1 µM [inhibitor, single point]",
Cc1c(Cl)cccc1NS(=O)(=O)c1ccc2[nH]cc(C(=O)NC3CCCC3)c(=O)c2c1,"inconclusive: 31.6 µM [inhibitor, single point]",
CN(C(=O)c1ccc(Br)o1)C1CCS(=O)(=O)C1 (stereo unspecified),"inconclusive: 8.91 µM [inhibitor, partial curve, poor fit]",
CCCc1cc2c(=O)c(-c3nc4ccccc4s3)c(COCC(=O)O)oc2cc1O,active: 50.1 µM,
CCCCN(CCCC)CCNC(=O)c1cn(C)c2ccc(S(=O)(=O)N3CCOCC3)cc2c1=O,,inactive: 0.326%
CCN(c1ccccc1)S(=O)(=O)c1ccc(OC)c(NC(=O)c2cc(Cl)ccn2)c1,active: 56.2 µM,
COc1cc(CN2CCC(C(=O)N3CCN(c4ccccc4F)CC3)CC2)cc(OC)c1OC,active: 25.1 µM,
O=C(CSc1nnc(-c2ccc(O)cc2)n1Cc1ccco1)N1CCc2ccccc2C1,"inconclusive: 89.1 µM [inhibitor, partial curve, poor fit]",
CC(=O)C1=C(c2ccc(Br)cc2)C(=O)c2ccccc2C1=O,active: 35.5 µM,
Cc1cccc(/C=C2/C(=O)/C(=C/c3ccccc3C)C3CCC2N3C)c1 (stereo unspecified),"inconclusive: 25.1 µM [inhibitor, single point]",
COc1ccc(NC(=O)C2CCN(S(=O)(=O)c3c(C)noc3/C=C/N(C)C)CC2)cc1,,inactive: 24.6% [at 102 µM]
CN1C(=O)CC(=O)N(C)c2cc(S(=O)(=O)N(C)Cc3ccccc3)ccc21,"inconclusive: 31.6 µM [inhibitor, partial curve, poor fit]",
O=C1CC(NS(=O)(=O)c2cccs2)CN1c1cccc(F)c1 (stereo unspecified),"inconclusive: 89.1 µM [inhibitor, partial curve, poor fit]",
Cc1ccc(Nc2ncc3c(n2)CC(c2ccco2)CC3=O)c(C)c1 (stereo unspecified),active: 50.1 µM,
CCOC(=O)N1CCN(C(=O)C2CCN(Cc3ccc(O)c(OCC)c3)CC2)CC1,active: 7.08 µM,
Cc1cc(C)nc(SCC(=O)Nc2ncc(Cc3cccc(Cl)c3Cl)s2)n1,"inconclusive: 79.4 µM [inhibitor, single point]",
Cc1[nH]c2ccccc2c1-c1nc(N)sc1C,active: 70.8 µM,
